Laboratory results published in ChEMBL document CHEMBL1157539, “Thousands of chemical starting points for antimalarial lead identification” (Nature, 2010).
Over roughly 13,000 compounds, “IFI” has its median near 4; the highest 2% begin near 17. The list shows a part of the results.

experiment: GSK_TCMDC: Inhibition Frequency Index (IFI). The number of non-kinase HTS assays where a compound showed > 50 % inhibition, expressed as a percentage of the number of such assays in which the compound was tested (-0 is zero); assay type: functional

Row | Compound | IFI
1 | CCOCCCNc1ncc(-c2ccsc2)c(-c2nc(C)cs2)n1 | 8.89%
2 | COc1cc(CCCOc2c(N)nc(N)nc2N)cc(OC)c1OC | 0.72%
3 | COc1cc(NC(=O)c2ccc3c(=O)n(Cc4ccccc4)c(=S)[nH]c3c2)cc(OC)c1OC | 1.38%
4 | CC1(C)N=C(N)N=C(N)N1c1cccc(C(F)(F)F)c1 | 0.85%
5 | Cc1[nH]c2ccc(O)cc2c1C1CCN(CCCCCNC(=O)/C=C/c2ccc(Cl)c(Cl)c2)CC1 | 4.96%
6 | COc1c(C=NNc2nc(=Nc3ccccc3)[nH]c(=Nc3ccccc3)[nH]2)ccc(Br)c1O | 4.26%
7 | O=C(CC1NC(=O)c2ccccc21)Nc1ccc(-c2ccc(-c3nc4cc(C(F)(F)F)ccc4[nH]3)cc2)cc1 (stereo unspecified) | 1.8%
8 | COC(=O)c1cccc(NC(=O)NC2CCN(c3ccnc(Nc4ccc(OC)cc4)n3)C2)c1 (stereo unspecified) | 1.54%
9 | Nc1cc(-c2ccc(-c3cccs3)s2)nc2ccccc12 | 7.86%
10 | N#Cc1ccc2c(c1)CN(C1CCC(NC(=O)C3=Cc4cc(Cl)ccc4OC3)CC1)CCC2 (stereo unspecified) | 3.39%
11 | Cc1noc(C)c1-c1ccc2c(Nc3ccc(C#N)cc3)c(C(N)=O)cnc2c1 | 4.03%
12 | Cc1ccc2sc(N3CCN(C(=O)c4ccc([N+](=O)[O-])o4)CC3)nc2c1C | -0%
13 | CCOC(=O)c1ccc(NC(=O)Nc2cccc(-c3cccc(-c4nc5ccccc5[nH]4)c3)c2)cc1 | 9%
14 | O=c1ccc2ccc(O)c(O)c2o1 | 6.43%
15 | N#Cc1ccc(CN2CCC(Oc3ccc(NC(=O)c4cccs4)cc3)CC2)cc1 | 7.58%
16 | CC(C)(C)c1ccc(CN2CCC(NC(=O)c3ccc(-c4ccccc4Cl)s3)CC2)cc1 | 8.77%
17 | CCN(CCCN1CCCCC1)c1cc(C)nc(Nc2ccc(C)cc2C)n1 | 5.06%
18 | COCc1ccc(CN2CCC(C(=O)Nc3ccc(-c4nc5ccccc5[nH]4)cc3)CC2)o1 | 2.63%
19 | O=C(CC1SC(N2N=C(c3cccs3)CC2c2ccccc2)=NC1=O)Nc1ccccc1F (stereo unspecified) | 2.27%
20 | Cc1ccc(-n2c(=O)c3cccnc3n2CC(=O)Nc2cccc(C)c2C)cc1 | 1.39%
21 | COc1cc(C=CC(=O)N2CCN(Cc3cccc(C)c3)CC2)ccc1OCc1c(C)noc1C | 0%
22 | Cc1ccc(-c2nnc(Nc3ccc(C(=O)N4CCCCC4)cc3)c3ccccc23)cc1S(=O)(=O)NCC1CCCO1 (stereo unspecified) | 2.63%
23 | O=C(Nc1cccc(-c2nc3ccccc3[nH]2)c1)c1ccc(-c2cccc([N+](=O)[O-])c2)o1 | 0%

Row | Compound | IFI
24 | CCNc1cc(C(=O)N[C@@H](Cc2ccccc2)[C@H](O)CNCc2cc(C#N)ccc2OC)cc(N2CCCC2=O)c1 | -0%
25 | O=C(Nc1ccccc1)N1CCC(CN2CCOC(c3ccccc3)(c3ccccc3)C2)CC1 | 2.31%
26 | COc1ccc(CNCc2ccccc2)cc1-c1ccc(S(=O)(=O)NCCN2CCCC2)cc1 | 4.9%
27 | Cc1cc(NC2CCCC2)nc(Nc2ccc(F)cc2)n1 | 9.09%
28 | O=C(NCCN1CCCC1)c1cccc(-c2ccc(-c3nc4cc(F)ccc4[nH]3)cc2)c1 | 6.31%
29 | Cc1nc(N)nc(N)c1-c1ccc(Cl)cc1 | 1.45%
30 | CN1CCN(CCCN(Cc2cccc(-c3cccc(CNC4CCCC4)c3)c2)C(=O)/C=C/c2ccccc2)CC1 | 6.62%
31 | COC(=O)c1cc2cccc(NC[C@@H](C)NC[C@H](O)c3cccc(Cl)c3)c2[nH]1 | 4.44%
32 | CC(C)C(C(=O)n1cc2c(ccc3nc(N)nc(N)c32)n1)C(C)C | 4.48%
33 | COc1ccc2nccc(N(C)CC3(O)CCC(NCc4ccc5c(n4)NC(=O)CS5)CC3)c2n1 (stereo unspecified) | -0%
34 | CC[C@H](NC(=O)c1c(N)c(-c2sccc2Cl)nc2ccccc12)c1ccccc1 | 2.38%
35 | COC(=O)c1cc(C(O)CNC(C)CCCc2ccccc2)ccc1O (stereo unspecified) | 2.17%
36 | O=C(Nc1cccc(-c2ccc(CN3CCC(O)CC3)cc2)c1)c1cccc(Cl)c1 | 2.94%
37 | COc1ccc(CN2CCN(C(=O)c3cccs3)CC2)c(O)c1 | 0%
38 | COc1ccc(S(=O)(=O)N2CCOCC2)cc1NC(=O)c1cc2ccccc2o1 | 0.95%
39 | O=C(/C=C/c1ccc(Cl)c(Cl)c1)NCCCCCN1CCC(NC(=O)Nc2cccc(Cl)c2)CC1 | 7.28%
40 | Cc1cc(-c2ccc3c(c2)CCN(CCC2CCC(NC(=O)/C=C/c4cccc(Cl)c4)CC2)CC3)on1 (stereo unspecified) | 5.88%
41 | O=C(/C=C/c1ccc(Cl)c(Cl)c1)NC1CCC(CN2CCC(Cc3c[nH]c4ccccc34)CC2)CC1 (stereo unspecified) | 3.62%
42 | O=C(c1ccc(O)c(-c2cc(Cl)cc(Cl)c2)c1)N1CCCC1 | 3.73%
43 | N#Cc1ccc(N[C@@H](CC2CCCCC2)C(=O)Nc2ccc(-c3ccccc3)cc2)c2ccccc12 | 1.94%
44 | CCN(CC)CCN(Cc1ccc(-c2ccc(C(F)(F)F)cc2)cc1)C(=O)Cn1c(CCc2cccc(C#N)c2)nc(=O)c2ccccc21 | 6.62%
45 | CCOC(=O)C1=C(C)N=c2sc(=Cc3ccccc3O)c(=O)n2C1c1ccc(OC)c2ccccc12 (stereo unspecified) | 2.14%
46 | CC(CCCCCC(=O)Nc1ccc(CC(C)NCCc2cccc(Cl)c2)cc1)NCCc1cccc(Cl)c1 (stereo unspecified) | 11.9%

Row | Compound | IFI
47 | Cc1ccc(OCCCCONC(=O)c2ccccc2)cc1 | 0.7%
48 | CC(=O)Nc1cccc(CNc2cc(C)nc(Nc3ccc(C)cc3)n2)c1 | 5%
49 | COCCNCc1cccc(-c2ccc3nccc(Nc4cc(O)ccc4C)c3c2)c1 | 2.21%
50 | O=C(/C=C/c1ccc(Cl)c(Cl)c1)NCCCCCN1CCCC(CCCNC(=O)Nc2ccc(C(F)(F)F)cc2)C1 (stereo unspecified) | 11.3%
51 | CCCCCCN1CCCN(Cc2cccc(C(=O)Nc3ccc(C(C)(C)C)cc3)c2)CC1 | 12.3%
52 | Cc1ccc(CNC(=O)[C@H](CCCN)Nc2nc(NCC3CCCCC3)ncc2C)cc1 | 8.89%
53 | CN(C)CCN(C)Cc1ccc(-c2ccc(NC(=O)c3cccc(C#N)c3)cc2)cc1 | 6.19%
54 | O=C(/C=C/c1ccc(Cl)cc1)NCCCCCN1CCCN(C(=O)Nc2cccc(Cl)c2)CC1 | 11%
55 | FC(F)(F)c1ccc2[nH]c(-c3ccc(-c4ccc(CNCC5CCCO5)cc4)s3)nc2c1 (stereo unspecified) | 6.86%
56 | OC(CNCc1ccccc1OCc1ccccc1)c1cccc(Br)c1 (stereo unspecified) | 0.82%
57 | Cc1cc(OCC2CCCN(c3ncc(C(=O)NC4CC4)cc3Cl)C2)ccc1F (stereo unspecified) | 1.85%
58 | O=C(NCCCCN1CCC2c3cccc(O)c3CCC21)c1ccc(-c2ccccc2)cc1 (stereo unspecified) | 3.67%
59 | COc1ccc(-c2ccc3c(-c4cccc(S(C)(=O)=O)c4)cnc(N)c3c2)cc1 | 5.22%
60 | Cc1ccc([N+](=O)[O-])cc1NC(=O)N(CC(O)c1ccccc1)C1CCCCC1 (stereo unspecified) | -0%
61 | COc1cc(C(=O)NC2CC(C)(C)NC(C)(C)C2)ccc1-c1cc2cc(Cl)c(Cl)cc2[nH]1 | 8.45%
62 | Cc1cc(N(CCO)CCCN2CCCCC2)nc(Nc2ccc(Cl)cc2)n1 | 1.44%
63 | CCC(C)Oc1ccc(CCCON2C(N)=NC(N)=NC2(C)C)cc1 (stereo unspecified) | 5.76%
64 | CCn1cc(C=C2Oc3c(ccc(O)c3CN3CCCCC3)C2=O)c2cc(OC)ccc21 | 2.7%
65 | COc1ccc2ncc(OC)c(CCN3CC[C@@H](NCc4ccc5c(n4)NC(=O)CS5)[C@H](O)C3)c2n1 | 1.53%
66 | CCCCCn1c(Sc2ccc(C#N)c([N+](=O)[O-])c2)nnc1-c1ccc(Cl)cc1 | 5.63%
67 | NC1CCN(Cc2ccc(-c3cccc(-c4nc5cc(F)ccc5[nH]4)c3)cc2)C1 (stereo unspecified) | 4.23%
68 | COc1ccc(C(=O)N2CCC(C(=O)NC(C)c3ccc(-n4ccnc4)cc3)CC2)c2ccccc12 (stereo unspecified) | 0%
69 | COc1cc(F)c2ncc(Cl)c(CCN3CCC(NCc4cc5c(cn4)OCCO5)CC3)c2c1 | 4.35%

Row | Compound | IFI
70 | CC(C)C[C@H](NC(=O)c1cc2ccccc2s1)C(=O)N[C@H]1CCN(Cc2ccc(I)c(OC3CCN(C)C3)c2)C1 (stereo partly specified) | 16.7%
71 | Cc1csc2nc(C(C)c3ccc(NC(=O)c4cccs4)cc3)oc(=O)c12 (stereo unspecified) | 0.73%
72 | Cn1ccnc1S(=O)(=O)CCNCc1ccc(-c2ccc3ncnc(Nc4ccc(OCc5cccc(F)c5)c(Cl)c4)c3c2)o1 | 7.3%
73 | Cc1ccc(OCC2CCN(c3ncc(C(=O)NC4CC4)cc3Cl)CC2)cc1 | 0%
74 | CCOC(=O)CNC(=O)N1CCN(C(=O)NCC(=O)OCC)CC1 | -0%
75 | CCc1ccc(N2C(N)=NC(N)=NC2(C)C)cc1 | 1.46%
76 | O=C1c2cc(I)ccc2SC1c1ccccc1 (stereo unspecified) | 1.43%
77 | CC1CCCN(C(=O)C(C)Nc2cc(Cl)ccc2N2CCOCC2)C1 (stereo unspecified) | 4.55%
78 | Cn1c(=O)c2cc(C(=O)NCCCN3CCCCCC3)sc2c2ccccc21 | 3.23%
79 | Cc1ccc(C(=O)Nc2ccc(Nc3ccnc4cc(-c5ccncc5)ccc34)cc2O)cc1 | 2.94%
80 | COc1ccc2nccc([C@@H](O)CN3CCC(NCCOc4ccc(F)cc4F)CC3)c2c1 | 1.59%
81 | Fc1ccc2[nH]c(-c3ccc(-c4ccc(CN5CCC(CCN6CCCCC6)CC5)cc4)s3)nc2c1 | 8.33%
82 | COc1ccccc1N1CCN(C(C(=O)NCc2ccc3c(c2)OCO3)c2ccc3c(c2)OCCCO3)CC1 (stereo unspecified) | 1.38%
83 | CC(C)[C@H](NC(=O)c1ccc(O)c(-c2ccc(Cl)c(Cl)c2)c1)C(=O)NC1CCCCCC1 | 1.48%
84 | Cc1cccc2nc(-c3ccc(-c4cccc(NC(=O)Nc5ccc(F)c(F)c5F)c4)cc3)[nH]c12 | 2.91%
85 | O=C(Nc1cccc(F)c1)N1CCC(CN2CCOC(c3ccccc3)(c3ccccc3)C2)CC1 | 2.33%
86 | CC(=O)Nc1ccc(S(=O)(=O)Nc2ccc(Nc3nc(C)cc(N(C)C)n3)cc2)cc1 | 0%
87 | COc1cc(Nc2ccnc3cc(-c4nccs4)ccc23)ccc1OCCCc1nc2ccccc2[nH]1 | 9.22%
88 | COc1cc(NC(=O)N2CCc3ccc(OCCN4CCCCC4)cc32)cc(C(F)(F)F)c1 | 3.57%
89 | COc1ccc(CN2CCCN(Cc3cccc(C(=O)Nc4ccc(C(C)(C)C)cc4)c3)CC2)cc1 | 11.2%
90 | COc1cc(NC(=O)NC(CCN2CCC3(CCc4ccccc43)CC2)c2ccc(Cl)c(Cl)c2)cc(OC)c1OC (stereo unspecified) | 6.9%
91 | O=C(Nc1ccc(Oc2ccccc2)cc1)N(Cc1ccc(-c2cccc(CN3CCNCC3)c2)cc1)C1CCN(Cc2ccccc2)CC1 | 5.19%
